# Data as given in PubChem BioAssay AID686978 (National Center for Advancing Translational Sciences (NCATS), 2013).
# The whole screen tested about 420,000 compounds, of which about 64,000 (15%) were called active. Inconclusive results, whose numbers are uncertain, are shown with a selection of clear calls. The call rests on the fitted dose curve; in most records, active means well fitted inhibition curve with a large enough effect; inconclusive means small, poorly fitted or top-dose-only effect; inactive means flat fitted curve, though single readings scatter. Potencies of inconclusive entries are left out as doubtful fits.
# Assay: qHTS for Inhibitors of human tyrosyl-DNA phosphodiesterase 1 (TDP1): qHTS in cells in absence of CPT; further: nearly all actives have a fitted effect of over 55% in size
# Conditions: DT40 Tdp1-/- hTDP1 cells, no CPT, ATP luminescence, 48 h; activity change, negative = growth inhibition: at 46.2 µM (top of the series) unless noted
# Summary of the method: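 Cells were dispensed at 400 per well, compounds added by pin tool, plates incubated ≥48 hr at 37 °C, then CellTiter-Glo added for 30 min at room temperature before luminescence reading. Line: DT40 Tdp1-/- complemented with hTDP1; camptothecin omitted.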
# On the % scale 0 is the no-effect control and ±100 the full control effect; potency means the concentration at half of the fitted maximal effect; tags describe the fitted curve by direction and shape.
SMILES,Potency,"activity change, negative = growth inhibition"
COc1ccccc1OCc1ccc(C(=O)Nc2ccc(C)c(C)c2)o1,"inconclusive [inhibitor, single point]",–
CC1(C)Cc2nc3sc4c(=O)[nH]cnc4c3cc2CS1,"inconclusive [inhibitor, single point]",–
CCN1CCN(Cc2ccc(NC(=O)c3ccc(C)c(NC(=O)c4cncc(-c5cccs5)c4)c3)cc2C(F)(F)F)CC1,active: 1.64 µM,–
Cc1ccc(NC(=O)CSc2n[nH]c(-c3ccncc3)n2)cc1,–,inactive: -2.68%
COc1ccc(NC(=S)N2CCc3ccccc32)cc1OC,–,inactive: -6.35%
C=C(C)CNC(=S)NNC(=O)CCn1c2cc(Cl)ccc2c2ccc(Cl)cc21,"inconclusive [inhibitor, partial curve, poor fit]",–
CCn1c(=S)[nH]c2scc(-c3cccs3)c2c1=O,"inconclusive [inhibitor, single point]",–
Cc1ccc2cc(C)c(SCC(=O)Nc3ccc(S(=O)(=O)N4CCCC4)cc3)nc2c1,"inconclusive [inhibitor, single point]",–
CCCCN(CC)CCCNC(=O)c1cn(C)c2ccc(S(=O)(=O)N(C)C3CCCCC3)cc2c1=O,"inconclusive [inhibitor, single point]",–
Cc1cccc(NC(=O)c2ncn3c2C(=O)N[C@H](C)C3)c1,"inconclusive [inhibitor, single point]",–
CC(=O)Nc1nc(NC(=O)C(Cl)(Cl)Cl)n(-c2ccccc2)n1,"inconclusive [inhibitor, single point]",–
COCC(C)n1c(C)cc(C(=O)COc2ccc(S(=O)(=O)N3CCOCC3)cc2Cl)c1C (stereo not drawn),"inconclusive [inhibitor, single point]",–
Cc1ccc(C2=NCCn3nc4cc(C(F)(F)F)ccc4c32)cc1,"inconclusive [inhibitor, single point]",–
C=CCNc1oc(/C=C/c2ccccc2)nc1C#N,–,inactive: -14.4%
CCN(CC)C(=O)COc1coc(CN2CCN(c3ccc(F)cc3)CC2)cc1=O,–,inconclusive: -33.2% [inhibitor]
C=C1C(=O)C2=CC1CCC(=O)C1(C)CCC(OC(C)=O)C(C)(C)C1CC2O (stereo not drawn),active: 2.06 µM,–
Cc1cccc2sc(N(CCCN(C)C)C(=O)COc3ccc(Cl)cc3)nc12,"inconclusive [inhibitor, single point]",–
Cc1ccc(-c2nc(NC(=O)c3cc(C(C)(C)C)nn3C)sc2C)cc1Cl,"inconclusive [inhibitor, single point]",–
